Substrate in this assay: IIICS isoform of fibronectin (human) (UniProt P02751)
The assay is described as follows: Biacore (SPR), scFv; set-up not described. For orientation: SPR reads the build-up and loss of mass on a sensor chip optically.

B1: scFv(SW01) (scFv)
scFv: [letters of about 100 residues omitted]NRYIFDYWGQGTLVTVSSGGGGSGGGGSGGGGSSELTQDPAVSVALGQTVRITCQGDSLRSYYASWYQQKPGQAPVLVIYGKNNRPSGIPDRFSGSSSGNTASLTITGAQAEDEADYYCNSSPKAPRPVVFGGGTKLTVLG
As to B1, the Kd turned out to be 262 nM, the koff stood at 0.048 s⁻¹ and the kon came out at 184000 M⁻¹ s⁻¹.

As usually defined, the Kd is the equilibrium constant for the complex coming apart. One may read the koff as the first-order rate constant of dissociation. The kon is the rate constant with which the complex forms.

The values above are taken from patent US20190062414A1.
